Positions count from the first letter of the chain named. This is one part of the list.
T1: RBFOX1 RRM (Homo sapiens, UniProt Q9NWB1 109-208)
T1 sequence: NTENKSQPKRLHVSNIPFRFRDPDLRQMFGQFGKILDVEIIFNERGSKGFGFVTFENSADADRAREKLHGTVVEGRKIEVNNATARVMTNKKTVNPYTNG

B1: UCAAUUC (DNA:RNA)
RNA: GGGAGACCGGAAUUCAGAUUGUCCUCAAUUCUUAAAUCCCGUCGUAGCCACCA
DNA 1: CAATCTGAATTCCGGTCTCCC
DNA 2: TGGTGGCTACGACGGGATT
B2: CGCUCGA (DNA:RNA)
RNA: GGGAGACCGGAAUUCAGAUUGUCCCGCUCGAUUAAAUCCCGUCGUAGCCACCA
DNA 1: CAATCTGAATTCCGGTCTCCC
DNA 2: TGGTGGCTACGACGGGATT
B3: CUCAGAA (DNA:RNA)
RNA: B2 RNA with G26U, U28A, C29G, G30A
DNA 1: CAATCTGAATTCCGGTCTCCC
DNA 2: TGGTGGCTACGACGGGATT
B4: AACGUAC (DNA:RNA)
RNA: B1 RNA with U25A, C26A, A27C, A28G, U30A
DNA 1: CAATCTGAATTCCGGTCTCCC
DNA 2: TGGTGGCTACGACGGGATT
B5: ACUUGAA (DNA:RNA)
RNA: B2 RNA with C25A, G26C, C27U, C29G, G30A
DNA 1: CAATCTGAATTCCGGTCTCCC
DNA 2: TGGTGGCTACGACGGGATT
B6: GCGAUUU (DNA:RNA)
RNA: B1 RNA with U25G, A27G, C31U
DNA 1: CAATCTGAATTCCGGTCTCCC
DNA 2: TGGTGGCTACGACGGGATT
B7: CUAAUAG (DNA:RNA)
RNA: B1 RNA with U25C, C26U, U30A, C31G
DNA 1: CAATCTGAATTCCGGTCTCCC
DNA 2: TGGTGGCTACGACGGGATT
B8: GCAGAAG (DNA:RNA)
RNA: B1 RNA with U25G, A28G, U29A, U30A, C31G
DNA 1: CAATCTGAATTCCGGTCTCCC
DNA 2: TGGTGGCTACGACGGGATT
B9: CAGUUUU (DNA:RNA)
RNA: B2 RNA with G26A, C27G, C29U, G30U, A31U
DNA 1: CAATCTGAATTCCGGTCTCCC
DNA 2: TGGTGGCTACGACGGGATT
B10: GGUUUAG (DNA:RNA)
RNA: B2 RNA with C25G, C27U, C29U, G30A, A31G
DNA 1: CAATCTGAATTCCGGTCTCCC
DNA 2: TGGTGGCTACGACGGGATT
B11: GGAUUCC (DNA:RNA)
RNA: B1 RNA with U25G, C26G, A28U, U30C
DNA 1: CAATCTGAATTCCGGTCTCCC
DNA 2: TGGTGGCTACGACGGGATT
B12: GUAGUCG (DNA:RNA)
RNA: B1 RNA with U25G, C26U, A28G, U30C, C31G
DNA 1: CAATCTGAATTCCGGTCTCCC
DNA 2: TGGTGGCTACGACGGGATT
B13: UCUUAUC (DNA:RNA)
RNA: B1 RNA with A27U, A28U, U29A
DNA 1: CAATCTGAATTCCGGTCTCCC
DNA 2: TGGTGGCTACGACGGGATT
B14: CCAACUG (DNA:RNA)
RNA: B1 RNA with U25C, U29C, C31G
DNA 1: CAATCTGAATTCCGGTCTCCC
DNA 2: TGGTGGCTACGACGGGATT
B15: UUACAAU (DNA:RNA)
RNA: B1 RNA with C26U, A28C, U29A, U30A, C31U
DNA 1: CAATCTGAATTCCGGTCTCCC
DNA 2: TGGTGGCTACGACGGGATT
B16: GGAAUCA (DNA:RNA)
RNA: B1 RNA with U25G, C26G, U30C, C31A
DNA 1: CAATCTGAATTCCGGTCTCCC
DNA 2: TGGTGGCTACGACGGGATT
B17: CUCGGCA (DNA:RNA)
RNA: B2 RNA with G26U, U28G, C29G, G30C
DNA 1: CAATCTGAATTCCGGTCTCCC
DNA 2: TGGTGGCTACGACGGGATT
B18: CUCGCUU (DNA:RNA)
RNA: B2 RNA with G26U, U28G, G30U, A31U
DNA 1: CAATCTGAATTCCGGTCTCCC
DNA 2: TGGTGGCTACGACGGGATT
B19: CGUUUAU (DNA:RNA)
RNA: B2 RNA with C27U, C29U, G30A, A31U
DNA 1: CAATCTGAATTCCGGTCTCCC
DNA 2: TGGTGGCTACGACGGGATT
B20: ACCAACU (DNA:RNA)
RNA: B1 RNA with U25A, A27C, U29A, U30C, C31U
DNA 1: CAATCTGAATTCCGGTCTCCC
DNA 2: TGGTGGCTACGACGGGATT
B21: GUCUUAC (DNA:RNA)
RNA: B2 RNA with C25G, G26U, C29U, G30A, A31C
DNA 1: CAATCTGAATTCCGGTCTCCC
DNA 2: TGGTGGCTACGACGGGATT
B22: UUCCGGC (DNA:RNA)
RNA: B2 RNA with C25U, G26U, U28C, C29G, A31C
DNA 1: CAATCTGAATTCCGGTCTCCC
DNA 2: TGGTGGCTACGACGGGATT
B23: UAUCAAG (DNA:RNA)
RNA: B1 RNA with C26A, A27U, A28C, U29A, U30A, C31G
DNA 1: CAATCTGAATTCCGGTCTCCC
DNA 2: TGGTGGCTACGACGGGATT
B24: AAGGGCU (DNA:RNA)
RNA: GGGAGACCGGAAUUCAGAUUGUCCAAGGGCUUUAAAUCCCGUCGUAGCCACCA
DNA 1: CAATCTGAATTCCGGTCTCCC
DNA 2: TGGTGGCTACGACGGGATT
B25: UGUUGAU (DNA:RNA)
RNA: B24 RNA with A25U, A26G, G27U, G28U, C30A
DNA 1: CAATCTGAATTCCGGTCTCCC
DNA 2: TGGTGGCTACGACGGGATT
B26: CUUCUCU (DNA:RNA)
RNA: B24 RNA with A25C, A26U, G27U, G28C, G29U
DNA 1: CAATCTGAATTCCGGTCTCCC
DNA 2: TGGTGGCTACGACGGGATT
B27: CAAAAAG (DNA:RNA)
RNA: B1 RNA with U25C, C26A, U29A, U30A, C31G
DNA 1: CAATCTGAATTCCGGTCTCCC
DNA 2: TGGTGGCTACGACGGGATT
B28: GCAUUUG (DNA:RNA)
RNA: B1 RNA with U25G, A28U, C31G
DNA 1: CAATCTGAATTCCGGTCTCCC
DNA 2: TGGTGGCTACGACGGGATT
B29: CAACCAU (DNA:RNA)
RNA: B24 RNA with A25C, G27A, G28C, G29C, C30A
DNA 1: CAATCTGAATTCCGGTCTCCC
DNA 2: TGGTGGCTACGACGGGATT
B30: GCGCACU (DNA:RNA)
RNA: B24 RNA with A25G, A26C, G28C, G29A
DNA 1: CAATCTGAATTCCGGTCTCCC
DNA 2: TGGTGGCTACGACGGGATT
B31: UUUUUUG (DNA:RNA)
RNA: B1 RNA with C26U, A27U, A28U, C31G
DNA 1: CAATCTGAATTCCGGTCTCCC
DNA 2: TGGTGGCTACGACGGGATT

Molecular target: T1, RBFOX1 RRM
Assay: EMSA; HiTS-Eq, 1 nM pool, 10 min; buffer printed only for the single-RNA assays: 10 mM Tris pH 7.5, 150 mM NaCl, 3.4 mM EDTA, 0.001% NP-40, 30 C
Settings: tags: His6 N-terminal (pET28a); label: 5' 32P
Method in brief: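 Purified wild-type or mutant RbFox RRM at increasing concentrations was equilibrated with 1 nM of 5′-radiolabelled RNA carrying 7 randomized nucleotides for 10 min in 50 µL. Unbound RNA was separated by 8% native PAGE and sequenced. Relative association constants came from read-count changes of each RNA species compared with the control reaction, normalised to the cognate motif.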

Binder | binding signal
B1 | 0.00427 KA relative to UGCAUGU
B2 | 0.0174 KA relative to UGCAUGU
B3 | 0.00496 KA relative to UGCAUGU
B4 | 0.00417 KA relative to UGCAUGU
B5 | 0.0101 KA relative to UGCAUGU
B6 | 0.0136 KA relative to UGCAUGU
B7 | 0.00505 KA relative to UGCAUGU
B8 | 0.0129 KA relative to UGCAUGU
B9 | 0.006 KA relative to UGCAUGU
B10 | 0.0117 KA relative to UGCAUGU
B11 | 0.00818 KA relative to UGCAUGU
B12 | 0.0126 KA relative to UGCAUGU
B13 | 0.00318 KA relative to UGCAUGU
B14 | 0.00702 KA relative to UGCAUGU
B15 | 0.00107 KA relative to UGCAUGU
B16 | 0.0111 KA relative to UGCAUGU

Binder | binding signal
B17 | 0.0189 KA relative to UGCAUGU
B18 | 0.00812 KA relative to UGCAUGU
B19 | 0.00365 KA relative to UGCAUGU
B20 | 0.000269 KA relative to UGCAUGU
B21 | 0.00926 KA relative to UGCAUGU
B22 | 0.00629 KA relative to UGCAUGU
B23 | 0.00843 KA relative to UGCAUGU
B24 | 0.0102 KA relative to UGCAUGU
B25 | 0.0302 KA relative to UGCAUGU
B26 | 0.00925 KA relative to UGCAUGU
B27 | 0.000641 KA relative to UGCAUGU
B28 | 0.0139 KA relative to UGCAUGU
B29 | 0.000819 KA relative to UGCAUGU
B30 | 0.0119 KA relative to UGCAUGU
B31 | 0.0341 KA relative to UGCAUGU

Reference: article PMC9911399, “Two distinct binding modes provide the RNA-binding protein RbFox with extraordinary sequence specificity”
